Key:
[1] = ADC stability in pH 7.4 and 8.0 GSH buffer; type: physicochemical; conditions: 10 mM GSH
Protocol: (§1) After the conjugation and hydrolysis steps described above (see “DAR8 antibody drug conjugate/conjugator-antibody conjugate preparation”), conjugator-antibody conjugates were incubated in formulation buffer (pH 5.5 20 mM histidine buffer) or glutathione (GSH) buffer (pH 7.4 or 8.0), and the solutions were left at 22 or 37° C. for 1˜168 h. Hydrolysis status was monitored via reduced LCMS. Results are presented in Table 6, Table 7, and FIGS. 2A-23B.
(§2) Results of stability assessments of ADCs in GSH solution or formulation buffer are presented in Table 8 and Table 9, respectively, and FIGS. 24A-37B.

[2] = ADC hydrophobicity evaluation by HIC (Method 1); type: physicochemical; conditions: later retention time = higher hydrophobic property
Protocol: HIC method: HPLC analysis was carried out under the following measurement conditions:
• HPLC system: Waters ACQUITY ARC HPLC System • Detector: measurement wavelength: 280 nm • Column: Tosoh Bioscience 4.6 μm ID×3.5 cm, 2.5 μm butyl-nonporous resin column • Column temperature: 25° C. • Mobile phase A: 1.5 M ammonium sulfate, 50 mM phosphate buffer, pH 7.0 • Mobile phase B: 50 mM phosphate buffer, 25% (V/V) isopropanol, pH 7.0 • Gradient program: 0% B-0% B (0 min-2 min), 0% B-100% B (2 min-15 min), 100% B-100% B (15 min-16 min), 100% B-0% B (16 min-17 min), 0% B-0% B (17 min-20 min) • Injected sample amount: 20 μg
ADC hydrophobicity evaluation: An ADC with a higher hydrophobic property would appear with a later retention time from HIC (hydrophobicity interaction column) chromatography. Results are presented in Table 4 using the DAR8 peak as a reference.

[3] = ADC stability in formulation buffer (20 mM histidine buffer); type: physicochemical; conditions: pH 5.5, 22 °C
Protocol: as §1, §2

[4] = system: H1650 cells; assay: ADCs in vivo efficacy study, H1650 model of lung cancer; parameters: species or system BALB/c Nude mice; conditions: for anti-tumor activity compared with non-RO conjugator ADC (ADC4-B): H1650 human lung cancer model (FIG. 44); for anti-tumor activity: H1650 human lung cancer model, i.v., 1 or 3 mg/kg QW*2 (FIG. 44)
Protocol: Female BALB/c Nude mice were subcutaneously implanted with 3× 10^6 H1650 cells per 200 μL PBS/matrigel in the right flank. After inoculation, tumor volumes were determined twice weekly in two dimensions using a caliper and were expressed in mm^3 using the formula V=0.5 (a×b^2) where a and b are the long and short diameters of the tumor, respectively. […] Partial regression (PR) was defined as tumor volume smaller than 50% of the starting tumor volume on the first day of dosing in three consecutive measurements and complete regression (CR) was defined as tumor volume less than 14 mm^3 in three consecutive measurements. Data are presented as mean tumor volume±standard error of the mean (SEM). Tumor growth inhibition (TGI) is calculated using the following formula: […]

B1: ADC4-12o: Ifinatamab ADC of Table 4, open-ring (RO) conjugator (conjugate)
heavy: QVQLVQSGAEVKKPGSSVKVSCKASGYTFTNYVMHWVRQAPGQGLEWMGYINPYNDDVKYNEKFKGRVTITADESTSTAYMELSSLRSEDTAVYYCARWGYYGSPLYYFDYWGQGTLVTVSSASTKGPSVFPLAPSSKSTSGGTAALGCLVKDYFPEPVTVSWNSGALTSGVHTFPAVLQSSGLYSLSSVVTVPSSSLGTQTYICNVNHKPSNTKVDKRV[human IgG1 Fc skipped]
light: EIVLTQSPATLSLSPGERATLSCRASSRLIYMHWYQQKPGQAPRPLIYATSNLASGIPARFSGSGSGTDFTLTISSLEPEDFAVYYCQQWNSNPPTFGQGTKVEIKRTVAAPSVFIFPPSDEQLKSGTASVVCLLNNFYPREAKVQWKVDNALQSGNSQESVTEQDSKDSTYSLSSTLTLSKADYEKHKVYACEVTHQGLSSPVTKSFNRGEC
MS DAR ([1]; 18 h, pH 7.4, 22 °C): 8.18 | MS DAR ([1]; 18 h, pH 7.4, 37 °C): 8.32 | MS DAR ([1]; 18 h, pH 8.0, 22 °C): 8.20 | DAR8 Species HIC Retention Time (min) (Method 1) [2]: 9.801 min | MS DAR-T = 0 h [3]: 8.06 | MS DAR-T = 168 h [3]: 8.10 | anti-tumor activity compared with non-RO conjugator ADC (ADC4-B) [4]: superior | anti-tumor activity [4]: potent anti-tumor activities

B2: ADC4-14o: Ifinatamab ADC of Table 4, open-ring (RO) conjugator (conjugate)
heavy: QVQLVQSGAEVKKPGSSVKVSCKASGYTFTNYVMHWVRQAPGQGLEWMGYINPYNDDVKYNEKFKGRVTITADESTSTAYMELSSLRSEDTAVYYCARWGYYGSPLYYFDYWGQGTLVTVSSASTKGPSVFPLAPSSKSTSGGTAALGCLVKDYFPEPVTVSWNSGALTSGVHTFPAVLQSSGLYSLSSVVTVPSSSLGTQTYICNVNHKPSNTKVDKRV[human IgG1 Fc skipped]
light: EIVLTQSPATLSLSPGERATLSCRASSRLIYMHWYQQKPGQAPRPLIYATSNLASGIPARFSGSGSGTDFTLTISSLEPEDFAVYYCQQWNSNPPTFGQGTKVEIKRTVAAPSVFIFPPSDEQLKSGTASVVCLLNNFYPREAKVQWKVDNALQSGNSQESVTEQDSKDSTYSLSSTLTLSKADYEKHKVYACEVTHQGLSSPVTKSFNRGEC
MS DAR ([1]; 72 h, pH 7.4, 22 °C): 8.14 | MS DAR ([1]; 72 h, pH 7.4, 37 °C): 8.16 | MS DAR ([1]; 72 h, pH 8.0, 22 °C): 8.12 | DAR8 Species HIC Retention Time (min) (Method 1) [2]: 9.977 min | MS DAR-T = 0 h [3]: 8.06 | MS DAR-T = 168 h [3]: 8.08 | anti-tumor activity compared with non-RO conjugator ADC (ADC4-B) [4]: superior | anti-tumor activity [4]: potent anti-tumor activities

— patent publication US20250352659A1, “SELF-STABILIZING LINKER CONJUGATES” (priority 2023, published 2025)
